Among the data in the supplement of paper PMC4967469 are AUC and IC50 values, retold here.

By IC50 is meant the dose at which the fit gives 50% viability; a fit beyond the top or the lowest dose is shown as a bound at that dose. AUC, from the same fit, is the share of area under the viability curve across the 256-fold dose range; it is 1 without any effect and falls as sensitivity rises. For some assays here: The top dose, if marked as inferred, comes from the curve model; the source does not state it. For some assays here: An entry number marks a drug with two screens in the source, which often give different values. A value given as a limit tells only on which side of the number the result lay.

Common to all, as to assay: Viability of human cancer cell lines after 72 h of drug (GDSC screen)
Compound in one experiment: COCC[n+]1c2c(n(Cc3cnccn3)c1C)C(=O)c1ccccc1C2=O [YM155]
The note with it: top dose 5.12 µM. The procedure: (§1)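 Human cancer cell lines in 384-well plates, medium with 10% serum, drug for 72 h over a 256-fold dose range (nine 2-fold or five 4-fold steps up to the top dose). Adherent lines were fixed and stained with the nucleic acid dye Syto60, suspension lines read with resazurin; signal relative to control wells, capped at 0 and 100%. One two-parameter sigmoid per drug and line, fitted in a mixed model over all curves with the slope shared within a line.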

Compound in another experiment: COC(=O)[C@H](CCSC)NC(=O)c1ccc(NC[C@@H](N)CS)cc1-c1ccccc1 [FTI-277]
The conditions noted are these: top dose 1.024 µM; top dose inferred. The procedure:
as §1

Compound in the next experiment: Cc1ccc(C(=O)N(CCCN)[C@@H](c2nc3cc(Cl)ccc3c(=O)n2Cc2ccccc2)C(C)C)cc1 [SB-715992]
The conditions noted are these: top dose 0.128 µM; top dose inferred. How it is done:
as §1

Compound in another experiment: CCOc1nc(NC(=O)Cc2cc(OC)ccc2OC)cc(N)c1C#N [JNK Inhibitor VIII]
The conditions noted are these: top dose 10 µM; top dose inferred. The procedure: as §1

Compound in the next experiment: O=C(/C=C/c1cccc(S(=O)(=O)Nc2ccccc2)c1)NO [Belinostat]
The note with it: top dose 20 µM; top dose inferred. How it is done:
as §1

Compound in another experiment: CC(=O)O[C@@]12CO[C@@H]1C[C@H](O)[C@@]1(C)C(=O)[C@H](O)C3=C(C)[C@@H](OC(=O)[C@H](O)[C@@H](NC(=O)OC(C)(C)C)c4ccccc4)C[C@@](O)([C@@H](OC(=O)c4ccccc4)[C@H]21)C3(C)C [Docetaxel]
The note with it: top dose 0.0125 µM. How it is done:
as §1

Compound in a further experiment: C[C@]1(O)C[C@@H](c2nc(-c3ccc4ccc(-c5ccccc5)nc4c3)c3c(N)nccn32)C1 [OSI-906]
The note with it: top dose 2.56 µM; top dose inferred. The procedure:
as §1

Compound in the next experiment: CC1(C)CNc2cc(NC(=O)c3cccnc3NCc3ccncc3)ccc21 [AMG-706]
The conditions noted are these: top dose 2 µM; top dose inferred. How it is done: as §1

Compound in the next experiment: CN1CCN(c2ccc([N+](=O)[O-])c3no[n+]([O-])c23)CC1 [NSC-207895]
The note with it: top dose 20 µM; top dose inferred. How it is done: as §1

Compound in another experiment: c1ccc2c(CCNc3ccc(Nc4ccncc4)cc3)c[nH]c2c1 [JNJ-26854165]
The conditions noted are these: top dose 10 µM. How it is done: as §1

Compound in a further experiment: Cc1sc2c(c1C)C(c1ccc(Cl)cc1)=N[C@@H](CC(=O)OC(C)(C)C)c1nnc(C)n1-2 [JQ1]
How it is done:
as §1

The mark [1] stands for this setting: top dose 1 µM, screen: GDSC drug entry 1218, top dose inferred.
The mark [2] stands for this setting: top dose 2.56 µM, screen: GDSC drug entry 163.

By IC50 is commonly meant the concentration needed to halve the response being measured. Consider NCI-H2452 (mesothelioma, adherent), for which the AUC turned out to be 0.239 with YM155; 0.961 with FTI-277; 0.983 with SB-715992; 0.984 in the experiment with JNK Inhibitor VIII; 0.945 in the experiment with Belinostat; 0.669 in the experiment with Docetaxel. In addition, the AUC worked out at 0.975 with OSI-906; 0.984 with AMG-706; 0.971 with NSC-207895; 0.809 in the experiment with JNJ-26854165; 0.982 with JQ1 (setting [1]); 0.9 in the experiment with JQ1 (setting [2]). Besides, the IC50 in the experiment with YM155 was 47.5 nM; with FTI-277 it was more than 1020 nM; in the experiment with SB-715992, more than 128 nM; with JNK Inhibitor VIII, more than 10000 nM; with Belinostat, more than 20000 nM; with Docetaxel it was 2.54 nM. Also, the IC50 is more than 2560 nM with OSI-906; more than 2000 nM in the experiment with AMG-706; more than 20000 nM with NSC-207895; 6460 nM with JNJ-26854165; more than 1000 nM in the experiment with JQ1 (setting [1]); more than 2560 nM in the experiment with JQ1 (setting [2]).
In the case of “NCI-H3122 (lung adenocarcinoma, adherent)”, the AUC with YM155 was 0.056; with FTI-277, 0.85; with SB-715992 it was 0.63; in the experiment with JNK Inhibitor VIII, 0.985; with Belinostat it was 0.365; in the experiment with Docetaxel, 0.664. The AUC came out at 0.957 with OSI-906; 0.986 with AMG-706; 0.97 with NSC-207895; 0.925 in the experiment with JNJ-26854165; 0.731 with JQ1 (setting [2]). The IC50 with YM155 was less than 20 nM; in the experiment with FTI-277, 810 nM; in the experiment with SB-715992, 18.5 nM; in the experiment with JNK Inhibitor VIII, more than 10000 nM; with Belinostat, 524 nM; with Docetaxel it was 2.27 nM. The IC50 is more than 2560 nM in the experiment with OSI-906; more than 2000 nM in the experiment with AMG-706; more than 20000 nM in the experiment with NSC-207895; more than 10000 nM with JNJ-26854165; 746 nM with JQ1 (setting [2]).
On to NUGC-4 (stomach, adherent), for which the AUC with YM155 was 0.045; with FTI-277 it was 0.982; with SB-715992, 0.964; with JNK Inhibitor VIII, 0.981; with Belinostat, 0.439; with Docetaxel it was 0.833. The AUC was 0.966 in the experiment with OSI-906; 0.969 in the experiment with AMG-706; 0.703 with NSC-207895; 0.737 with JNJ-26854165; 0.986 with JQ1 (setting [1]); 0.986 with JQ1 (setting [2]). The IC50 was less than 20 nM in the experiment with YM155; more than 1020 nM with FTI-277; more than 128 nM in the experiment with SB-715992; more than 10000 nM with JNK Inhibitor VIII; 851 nM in the experiment with Belinostat; 8.1 nM in the experiment with Docetaxel. Besides, the IC50 with OSI-906 is more than 2560 nM; with AMG-706, more than 2000 nM; in the experiment with NSC-207895 it was 4660 nM; with JNJ-26854165, 2970 nM; with JQ1 (setting [1]), more than 1000 nM; with JQ1 (setting [2]), more than 2560 nM.
Regarding NY (osteosarcoma, adherent), the AUC with YM155 was found to be 0.909; with FTI-277 it was 0.988; with SB-715992 it was 0.989; in the experiment with JNK Inhibitor VIII, 0.968; with Belinostat, 0.948; with Docetaxel, 0.62. Besides, the AUC with OSI-906 is 0.953; with AMG-706, 0.982; with NSC-207895, 0.989; with JNJ-26854165 it was 0.904; with JQ1 (setting [1]), 0.986; in the experiment with JQ1 (setting [2]) it was 0.818. In addition, the IC50 with YM155 is more than 5120 nM; with FTI-277, more than 1020 nM; with SB-715992 it was more than 128 nM; with JNK Inhibitor VIII, more than 10000 nM; with Belinostat, more than 20000 nM; in the experiment with Docetaxel, 1.67 nM. The IC50 in the experiment with OSI-906 was more than 2560 nM; with AMG-706 it was more than 2000 nM; with NSC-207895 it was more than 20000 nM; with JNJ-26854165 it was more than 10000 nM; in the experiment with JQ1 (setting [1]) it was more than 1000 nM; in the experiment with JQ1 (setting [2]), 1420 nM.
Consider OAW-42 (ovary, adherent), for which the AUC with YM155 turned out to be 0.231; in the experiment with FTI-277 it was 0.986; in the experiment with SB-715992, 0.9; with JNK Inhibitor VIII it was 0.976; with Belinostat it was 0.582; in the experiment with Docetaxel, 0.896. Moreover, the AUC stood at 0.967 with OSI-906; 0.978 in the experiment with AMG-706; 0.905 with NSC-207895; 0.949 in the experiment with JNJ-26854165; 0.966 with JQ1 (setting [1]); 0.739 in the experiment with JQ1 (setting [2]). Further, the concentration for half-maximal inhibition (IC50) with YM155 is 49.1 nM; with FTI-277, more than 1020 nM; with SB-715992 it was more than 128 nM; with JNK Inhibitor VIII it was more than 10000 nM; with Belinostat, 2130 nM; in the experiment with Docetaxel, more than 12.5 nM. The IC50 with OSI-906 is more than 2560 nM; with AMG-706, more than 2000 nM; with NSC-207895, more than 20000 nM; with JNJ-26854165 it was more than 10000 nM; in the experiment with JQ1 (setting [1]), more than 1000 nM; with JQ1 (setting [2]), 824 nM.
With OCUM-1 (stomach, adherent), the AUC worked out at 0.982 in the experiment with YM155; 0.985 with FTI-277; 0.983 with SB-715992; 0.97 in the experiment with JNK Inhibitor VIII; 0.974 with Belinostat; 0.792 in the experiment with Docetaxel. The AUC with OSI-906 is 0.967; with AMG-706, 0.954; with NSC-207895, 0.98; in the experiment with JNJ-26854165 it was 0.964; in the experiment with JQ1 (setting [2]), 0.848. The IC50 in the experiment with YM155 is more than 5120 nM; with FTI-277, more than 1020 nM; with SB-715992 it was more than 128 nM; with JNK Inhibitor VIII, more than 10000 nM; in the experiment with Belinostat, more than 20000 nM; in the experiment with Docetaxel, 6.35 nM. In addition, the half-maximal inhibitory concentration (IC50) with OSI-906 is more than 2560 nM; with AMG-706, more than 2000 nM; with NSC-207895 it was more than 20000 nM; with JNJ-26854165, more than 10000 nM; with JQ1 (setting [2]), 2230 nM.
